“And” between values parts separate entries of the source, which are not always exact repeats. Equal values may be shown once.
Biological target: the molecule itself
Assay: native gel or EMSA

B1: Cy3-Hfq:S65C protein (natural protein)
chain: not shown
modifications: Cy3-maleimide on the cysteine of S65C
  stoichiometry N: 6 and 12
